Measurements: the supplement of paper PMC7266297
Where a name gives a salt, the structure may show the parent alone. The list shows a part of the results. Single values are uncertain, as repeats are few or missing.
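Note: Read-out is SRB optical density at 490 nm, with the control being wells given 0.5% DMSO vehicle, and compound added one day after cells were plated.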

These compounds were tested on KB-3-1 (assay: growth inhibition relative to DMSO control (SRB); cervical cancer cells: KB-3-1 is the parent and KB-V1 overexpresses MDR1; SRB is the sulforhodamine B stain; higher = more growth inhibition). Details: 1 µM; 72 h.
With `CN(C)CCC(c1ccc(Cl)cc1)c1ccccn1` (stereo not drawn) [Chlorpheniramine Maleate] the growth inhibition was 52.5%.
For `CC(=O)[C@H]1CC[C@H]2[C@@H]3CC=C4C[C@@H](O)CC[C@]4(C)[C@H]3CC[C@]12C` [Pregnenolone], the growth inhibition was 50.2%.
With `CCOc1cc2ncc(C#N)c(Nc3ccc(F)c(Cl)c3)c2cc1NC(=O)/C=C/CN(C)C` [Pelitinib (EKB-569)] the growth inhibition was 63.8%.
With `O=C1Nc2ccccc2/C1=C1/Nc2ccccc2C1=O` [Indirubin] the growth inhibition was < 0%.
`NS(=O)(=O)c1ccc(NC(=O)Nc2ccc(F)cc2)cc1` gave a growth inhibition of 19.8%.
Work on `CCOC(=O)c1ncn2c1CN(C)C(=O)c1cc(F)ccc1-2` [Flumazenil] yielded a growth inhibition of 11.3%.
For `CCN1CCN(Cc2ccc(Nc3ncc(F)c(-c4cc(F)c5nc(C)n(C(C)C)c5c4)n3)nc2)CC1`, the growth inhibition was 89.2%.
With `COc1ccc2cc([C@H](C)C(=O)O)ccc2c1` [Naproxen] the growth inhibition was 27.1%.
Compound `NC(=O)N1CCC(CC(=O)N2CCC([C@H]3c4ncc(Br)cc4CCc4cc(Cl)cc(Br)c43)CC2)CC1` [Lonafarnib] has a growth inhibition of 49.4%.
`COc1ccccc1S(=O)(=O)Nc1ccc2c(c1)CN(C)C(=O)N2` gave a growth inhibition of 71.3%.
`O=C(/C=C/c1ccc(CN(CCO)CCc2c[nH]c3ccccc23)cc1)NO` [LAQ824 (Dacinostat)] gave a growth inhibition of 95%.
Work on `CS(=O)(=O)c1cccc(CNc2nc(Nc3ccc4c(c3)CCC(=O)N4)ncc2C(F)(F)F)c1` yielded a growth inhibition of 41.9%.
`Nc1nc(N)c(N=O)c(OCC2CCCCC2)n1` gave a growth inhibition of 29.8%.
`COC(=O)N1CCN(Cc2cccc(NC(=O)Nc3ccc(C)nc3)c2F)CC1` gave a growth inhibition of 26%.
`COc1cc2nc(N3CCCN(C)CC3)nc(NC3CCN(Cc4ccccc4)CC3)c2cc1OC` gave a growth inhibition of 97%.
With `Cc1[nH]c(=O)c(C#N)cc1-c1ccncc1` [Milrinone] the growth inhibition was 26.9%.
With `CCN1C[C@H](C)n2c(c(O)c3c(=O)n(Cc4ccc(F)c(Cl)c4)nc(C(=O)NC)c32)C1=O` the growth inhibition was < 0%.
`Cc1ccc(F)c(NC(=O)Nc2ccc(-c3cccc4[nH]nc(N)c34)cc2)c1` [Linifanib (ABT-869)] gave a growth inhibition of 18%.
`Cn1cc(-c2ccc3ncc(Cc4ccc5ncccc5c4)n3n2)cn1` was tested, and the growth inhibition was 100%.
In the case of `CNC(CC(=O)O)C(=O)O` [NMDA (N-Methyl-D-aspartic acid)], the growth inhibition is reported as 85.5%.
For `CC[C@@H](C)Nc1cc(C(=O)N[C@H]2C[C@H]3CC[C@@H](C2)N3c2ccc(C(=O)C3CC3)cn2)c(C)cc1C(N)=O`, the growth inhibition was 73%.
Compound `Cc1nc(N)sc1-c1ccnc(Nc2ccc(N3CCOCC3)cc2)n1` has a growth inhibition of 80.9%.
Compound `NCCc1ccc(O)c(O)c1` [Dopamine HCl] has a growth inhibition of 27.8%.
Work on `CC1(C)O[C@@H]2[C@@H](CO[C@@]3(COS(N)(=O)=O)OC(C)(C)O[C@@H]23)O1` [Topiramate] yielded a growth inhibition of 14.1%.
Work on `O=S(=O)(c1ccccc1)c1cnc2c(N3CCNCC3)cccc2c1` yielded a growth inhibition of 5.56%.
With `COc1ccccc1N1CCN(CCN(C(=O)C2CCCCC2)c2ccccn2)CC1` the growth inhibition was < 0%.
For `CN(C)CCCN1c2ccccc2Sc2ccc(Cl)cc21` [Chlorpromazine HCl], the growth inhibition was 29.6%.
`Nc1nc(=O)n([C@@H]2CS[C@H](CO)O2)cc1F` [Emtricitabine] showed a growth inhibition of 44.4%.

What follows are compounds tested on KB-V1 in the same assay as above. Details: 1 µM; 72 h.
In the case of `COc1cc2ncnc(Oc3cccc(NC(=O)Nc4cc(C(C)(C)C(F)(F)F)on4)c3)c2cc1OC`, the growth inhibition is reported as < 0%.
For `O=C(c1ccc(C(=O)N2CCC(N3CCCC3)CC2)c(Nc2ccccc2)c1)N1CCC(N2CCCC2)CC1`, the growth inhibition was 4.8%.
In the case of `CCOC(=O)CCNc1cc(N2CCc3ccccc3CC2)nc(-c2ccccn2)n1`, the growth inhibition is reported as 67.1%.
`O=C(Nc1c(Cl)cncc1Cl)c1ccc(OC(F)F)c(OCC2CC2)c1` [Roflumilast] was tested, and the growth inhibition was 17.8%.
With `CCC(=O)N1CCN(c2ccc(-n3c(=O)ccc4cnc5ccc(-c6cnc7ccccc7c6)cc5c43)cc2C(F)(F)F)CC1` [Torin 1] the growth inhibition was 84.4%.
`COc1cc2c(cc1OC)CN(CCc1ccc(NC(=O)c3cc(OC)c(OC)cc3NC(=O)c3cnc4ccccc4c3)cc1)CC2` [Tariquidar] was tested, and the growth inhibition was 24.1%.
Compound `C[C@]12CCC(=O)C=C1[C@@H]1C[C@@H]1[C@H]1[C@@H]3[C@@H]4C[C@@H]4[C@@]4(CCC(=O)O4)[C@@]3(C)CC[C@@H]12` [Drospirenone] has a growth inhibition of 33.1%.
Work on `COc1ccc2cccc(CCNC(C)=O)c2c1` [Agomelatine] yielded a growth inhibition of 32.8%.
Work on `CC(C)CN(C[C@@H](O)[C@H](Cc1ccccc1)NC(=O)O[C@H]1CO[C@H]2OCC[C@H]21)S(=O)(=O)c1ccc(N)cc1` [Darunavir Ethanolate] yielded a growth inhibition of 11.5%.
Work on `COC(=O)C1=C(C)NC(C)=C(C(=O)OC(C)C)C1c1cccc2nonc12` (stereo not drawn) [Isradipine] yielded a growth inhibition of 1.7%.
With `CN[C@H]1CC[C@@H](c2ccc(Cl)c(Cl)c2)c2ccccc21` [Sertraline HCl] the growth inhibition was 13.9%.
In the case of `CCCc1nn(C)c2c(=O)[nH]c(-c3cc(S(=O)(=O)N4CCN(C)CC4)ccc3OCC)nc12` [Sildenafil Citrate], the growth inhibition is reported as 39.6%.
In the case of `CN(C)CCC(c1ccc(Cl)cc1)c1ccccn1` (stereo not drawn) [Chlorpheniramine Maleate], the growth inhibition is reported as 24%.
In the case of `CC(=O)[C@H]1CC[C@H]2[C@@H]3CC=C4C[C@@H](O)CC[C@]4(C)[C@H]3CC[C@]12C` [Pregnenolone], the growth inhibition is reported as 24.5%.
`CCOc1cc2ncc(C#N)c(Nc3ccc(F)c(Cl)c3)c2cc1NC(=O)/C=C/CN(C)C` [Pelitinib (EKB-569)] gave a growth inhibition of 56.9%.
Work on `O=C1Nc2ccccc2/C1=C1/Nc2ccccc2C1=O` [Indirubin] yielded a growth inhibition of 14%.
With `NS(=O)(=O)c1ccc(NC(=O)Nc2ccc(F)cc2)cc1` the growth inhibition was 8.1%.
For `CCOC(=O)c1ncn2c1CN(C)C(=O)c1cc(F)ccc1-2` [Flumazenil], the growth inhibition was 38.4%.
`CCN1CCN(Cc2ccc(Nc3ncc(F)c(-c4cc(F)c5nc(C)n(C(C)C)c5c4)n3)nc2)CC1` gave a growth inhibition of 53.6%.
`COc1ccc2cc([C@H](C)C(=O)O)ccc2c1` [Naproxen] was tested, and the growth inhibition was 7.89%.
Compound `NC(=O)N1CCC(CC(=O)N2CCC([C@H]3c4ncc(Br)cc4CCc4cc(Cl)cc(Br)c43)CC2)CC1` [Lonafarnib] has a growth inhibition of 53.9%.
`COc1ccccc1S(=O)(=O)Nc1ccc2c(c1)CN(C)C(=O)N2` was tested, and the growth inhibition was 57.3%.
Compound `O=C(/C=C/c1ccc(CN(CCO)CCc2c[nH]c3ccccc23)cc1)NO` [LAQ824 (Dacinostat)] has a growth inhibition of 97.2%.
`CS(=O)(=O)c1cccc(CNc2nc(Nc3ccc4c(c3)CCC(=O)N4)ncc2C(F)(F)F)c1` showed a growth inhibition of 21.3%.
In the case of `Nc1nc(N)c(N=O)c(OCC2CCCCC2)n1`, the growth inhibition is reported as 3.19%.
`COC(=O)N1CCN(Cc2cccc(NC(=O)Nc3ccc(C)nc3)c2F)CC1` was tested, and the growth inhibition was 9.57%.
In the case of `COc1cc2nc(N3CCCN(C)CC3)nc(NC3CCN(Cc4ccccc4)CC3)c2cc1OC`, the growth inhibition is reported as 63.7%.
`Cc1[nH]c(=O)c(C#N)cc1-c1ccncc1` [Milrinone] was tested, and the growth inhibition was 8.51%.
With `CCN1C[C@H](C)n2c(c(O)c3c(=O)n(Cc4ccc(F)c(Cl)c4)nc(C(=O)NC)c32)C1=O` the growth inhibition was < 0%.
`Cc1ccc(F)c(NC(=O)Nc2ccc(-c3cccc4[nH]nc(N)c34)cc2)c1` [Linifanib (ABT-869)] was tested, and the growth inhibition was 18.1%.
`Cn1cc(-c2ccc3ncc(Cc4ccc5ncccc5c4)n3n2)cn1` gave a growth inhibition of 100%.
With `CNC(CC(=O)O)C(=O)O` [NMDA (N-Methyl-D-aspartic acid)] the growth inhibition was 70.5%.
In the case of `CC[C@@H](C)Nc1cc(C(=O)N[C@H]2C[C@H]3CC[C@@H](C2)N3c2ccc(C(=O)C3CC3)cn2)c(C)cc1C(N)=O`, the growth inhibition is reported as 29.6%.
`Cc1nc(N)sc1-c1ccnc(Nc2ccc(N3CCOCC3)cc2)n1` showed a growth inhibition of 64%.
`NCCc1ccc(O)c(O)c1` [Dopamine HCl] was tested, and the growth inhibition was 3.19%.
Work on `CC1(C)O[C@@H]2[C@@H](CO[C@@]3(COS(N)(=O)=O)OC(C)(C)O[C@@H]23)O1` [Topiramate] yielded a growth inhibition of 31%.
`O=S(=O)(c1ccccc1)c1cnc2c(N3CCNCC3)cccc2c1` showed a growth inhibition of 6.7%.
With `COc1ccccc1N1CCN(CCN(C(=O)C2CCCCC2)c2ccccn2)CC1` the growth inhibition was < 0%.
In the case of `CN(C)CCCN1c2ccccc2Sc2ccc(Cl)cc21` [Chlorpromazine HCl], the growth inhibition is reported as 18%.
Work on `Nc1nc(=O)n([C@@H]2CS[C@H](CO)O2)cc1F` [Emtricitabine] yielded a growth inhibition of 14%.
